{
  "source": "the supplement of paper PMC12230231",
  "note": "± gives the standard deviation of the averaged measurements. Restriction of a single-cycle SIVsab GFP reporter by TRIM5α v1-loop variants in CRFK cells. Human variants: read share among cells still uninfected after two challenges over input, higher = gained restriction. Rhesus variants: share among infected cells over input, higher = lost restriction. Reporter dose not given per row. No active / inactive call per row; the paper calls a change when both replicates lie above its controls (mean + 2 SD of stop or wild-type variants, or the top frameshift score). Residues outside the varied loop are taken from Swiss-Prot. The paper reads the human single-substitution scores as noise; they and the rhesus combinations repeat poorly (rank correlation 0.3 to 0.4), indel scores repeat only for the top variants, rhesus substitutions well (0.9).",
  "data": [
    {"system": "SIVsab (simian immunodeficiency virus of sabaeus monkeys), single-cycle GFP reporter, in CRFK cells", "experiment": "enrichment among uninfected cells over input (fold); higher = stronger restriction", "conditions": "library: human / rhesus combinations", "method": "(§1)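 Pools of CRFK cells expressing variants of the TRIM5α v1 loop were challenged with the single-cycle reporter, sorted by GFP and sequenced; mean of two replicates.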", "values": [
      {"sequence": "MASGILVNVKEEVTCPICLELLTQPLSLDCGHSFCQACLTANHKKSMLDKGESSCPVCRISYQPENIRPNRHVANIVEKLREVKLSPEGQKVDHCARHGEKLLLFCQEDGKVICWLCERSQEHRGHHTFLTEEVAREYQVKLQAALEMLRQKQQEAEELEADIREEKASWKTQIQYDKTNVLADFEQLRDILDWEESNELQNLEKEEEDILKSLTNSETEMVQQTQSLRELISDLEHRLQGSVMELLQGVDGVIKRTENVTLKKPETFPKNQRRVFRAPDLKGMLEVFRELTDVRRYWVDVTVAPNNISCAVISEDKRQVSSPKPQIIYGAPGTLYTFPTFTNFNYCTGILGSQSITSGKHYWEVDVSKKTAWILGVCAGFQPDAMCNIEKNENYQPKYGYWVIGLEEGVKCSAFQDSSFHTPSVPFIVPLSVIICPDRVGVFLDYEACTVSFFNITNHGFLIYKFSHCSFSQPVFPYLNPRKCGVPMTLCSPSS [human TRIM5α, 330-340 = GAPGTLYTFPTFT]", "enrichment": "0.049 ± 0.069"}
    ]},
    {"system": "SIVsab (simian immunodeficiency virus of sabaeus monkeys), single-cycle GFP reporter, in CRFK cells", "experiment": "enrichment among uninfected cells over input (fold); higher = stronger restriction", "conditions": "library: insertions and deletions", "method": "as §1", "values": [
      {"sequence": "MASGILVNVKEEVTCPICLELLTQPLSLDCGHSFCQACLTANHKKSMLDKGESSCPVCRISYQPENIRPNRHVANIVEKLREVKLSPEGQKVDHCARHGEKLLLFCQEDGKVICWLCERSQEHRGHHTFLTEEVAREYQVKLQAALEMLRQKQQEAEELEADIREEKASWKTQIQYDKTNVLADFEQLRDILDWEESNELQNLEKEEEDILKSLTNSETEMVQQTQSLRELISDLEHRLQGSVMELLQGVDGVIKRTENVTLKKPETFPKNQRRVFRAPDLKGMLEVFRELTDVRRYWVDVTVAPNNISCAVISEDKRQVSSPKPQIIYGARGTRYQTFVNFNYGSQSITSGKHYWEVDVSKKTAWILGVCAGFQPDAMCNIEKNENYQPKYGYWVIGLEEGVKCSAFQDSSFHTPSVPFIVPLSVIICPDRVGVFLDYEACTVSFFNITNHGFLIYKFSHCSFSQPVFPYLNPRKCGVPMTLCSPSS [human TRIM5α, 5-codon deletion at 345]", "enrichment": "0.678 ± 0.31"},
      {"sequence": "MASGILVNVKEEVTCPICLELLTQPLSLDCGHSFCQACLTANHKKSMLDKGESSCPVCRISYQPENIRPNRHVANIVEKLREVKLSPEGQKVDHCARHGEKLLLFCQEDGKVICWLCERSQEHRGHHTFLTEEVAREYQVKLQAALEMLRQKQQEAEELEADIREEKASWKTQIQYDKTNVLADFEQLRDILDWEESNELQNLEKEEEDILKSLTNSETEMVQQTQSLRELISDLEHRLQGSVMELLQGVDGVIKRTENVTLKKPETFPKNQRRVFRAPDLKGMLEVFRELTDVRRYWVDVTVAPNNISCAVISEDKRQVSSPKPQIIYGARGTRYQTFVNFFVNFNYCTGILGSQSITSGKHYWEVDVSKKTAWILGVCAGFQPDAMCNIEKNENYQPKYGYWVIGLEEGVKCSAFQDSSFHTPSVPFIVPLSVIICPDRVGVFLDYEACTVSFFNITNHGFLIYKFSHCSFSQPVFPYLNPRKCGVPMTLCSPSS [human TRIM5α, 4-codon duplication at 339]", "enrichment": "0.24 ± 0.34"},
      {"sequence": "MASGILVNVKEEVTCPICLELLTQPLSLDCGHSFCQACLTANHKKSMLDKGESSCPVCRISYQPENIRPNRHVANIVEKLREVKLSPEGQKVDHCARHGEKLLLFCQEDGKVICWLCERSQEHRGHHTFLTEEVAREYQVKLQAALEMLRQKQQEAEELEADIREEKASWKTQIQYDKTNVLADFEQLRDILDWEESNELQNLEKEEEDILKSLTNSETEMVQQTQSLRELISDLEHRLQGSVMELLQGVDGVIKRTENVTLKKPETFPKNQRRVFRAPDLKGMLEVFRELTDVRRYWVDVTVAPNNISCAVISEDKRQVSSPKPQIIYGARGTRYQTFVNFNYCTGCTGILGSQSITSGKHYWEVDVSKKTAWILGVCAGFQPDAMCNIEKNENYQPKYGYWVIGLEEGVKCSAFQDSSFHTPSVPFIVPLSVIICPDRVGVFLDYEACTVSFFNITNHGFLIYKFSHCSFSQPVFPYLNPRKCGVPMTLCSPSS [human TRIM5α, 3-codon duplication at 345]", "enrichment": "0.764 ± 0.13"},
      {"sequence": "MASGILVNVKEEVTCPICLELLTQPLSLDCGHSFCQACLTANHKKSMLDKGESSCPVCRISYQPENIRPNRHVANIVEKLREVKLSPEGQKVDHCARHGEKLLLFCQEDGKVICWLCERSQEHRGHHTFLTEEVAREYQVKLQAALEMLRQKQQEAEELEADIREEKASWKTQIQYDKTNVLADFEQLRDILDWEESNELQNLEKEEEDILKSLTNSETEMVQQTQSLRELISDLEHRLQGSVMELLQGVDGVIKRTENVTLKKPETFPKNQRRVFRAPDLKGMLEVFRELTDVRRYWVDVTVAPNNISCAVISEDKRQVSSPKPQIIYGARGTRYQTFVGILGSQSITSGKHYWEVDVSKKTAWILGVCAGFQPDAMCNIEKNENYQPKYGYWVIGLEEGVKCSAFQDSSFHTPSVPFIVPLSVIICPDRVGVFLDYEACTVSFFNITNHGFLIYKFSHCSFSQPVFPYLNPRKCGVPMTLCSPSS [human TRIM5α, 6-codon deletion at 341]", "enrichment": "0.808 ± 0.3"},
      {"sequence": "MASGILVNVKEEVTCPICLELLTQPLSLDCGHSFCQACLTANHKKSMLDKGESSCPVCRISYQPENIRPNRHVANIVEKLREVKLSPEGQKVDHCARHGEKLLLFCQEDGKVICWLCERSQEHRGHHTFLTEEVAREYQVKLQAALEMLRQKQQEAEELEADIREEKASWKTQIQYDKTNVLADFEQLRDILDWEESNELQNLEKEEEDILKSLTNSETEMVQQTQSLRELISDLEHRLQGSVMELLQGVDGVIKRTENVTLKKPETFPKNQRRVFRAPDLKGMLEVFRELTDVRRYWVDVTVAPNNISCAVISEDKRQVSSPKPQIIYGARGTRVNFNYCTGILGSQSITSGKHYWEVDVSKKTAWILGVCAGFQPDAMCNIEKNENYQPKYGYWVIGLEEGVKCSAFQDSSFHTPSVPFIVPLSVIICPDRVGVFLDYEACTVSFFNITNHGFLIYKFSHCSFSQPVFPYLNPRKCGVPMTLCSPSS [human TRIM5α, 4-codon deletion at 336]", "enrichment": "0.528 ± 0.43"},
      {"sequence": "MASGILVNVKEEVTCPICLELLTQPLSLDCGHSFCQACLTANHKKSMLDKGESSCPVCRISYQPENIRPNRHVANIVEKLREVKLSPEGQKVDHCARHGEKLLLFCQEDGKVICWLCERSQEHRGHHTFLTEEVAREYQVKLQAALEMLRQKQQEAEELEADIREEKASWKTQIQYDKTNVLADFEQLRDILDWEESNELQNLEKEEEDILKSLTNSETEMVQQTQSLRELISDLEHRLQGSVMELLQGVDGVIKRTENVTLKKPETFPKNQRRVFRAPDLKGMLEVFRELTDVRRYWVDVTVAPNNISCAVISEDKRQVSSPKPQIIYGARGTRYRGTRYQTFVNFNYCTGILGSQSITSGKHYWEVDVSKKTAWILGVCAGFQPDAMCNIEKNENYQPKYGYWVIGLEEGVKCSAFQDSSFHTPSVPFIVPLSVIICPDRVGVFLDYEACTVSFFNITNHGFLIYKFSHCSFSQPVFPYLNPRKCGVPMTLCSPSS [human TRIM5α, 5-codon duplication at 332]", "enrichment": "0.486 ± 0.064"},
      {"sequence": "MASGILVNVKEEVTCPICLELLTQPLSLDCGHSFCQACLTANHKKSMLDKGESSCPVCRISYQPENIRPNRHVANIVEKLREVKLSPEGQKVDHCARHGEKLLLFCQEDGKVICWLCERSQEHRGHHTFLTEEVAREYQVKLQAALEMLRQKQQEAEELEADIREEKASWKTQIQYDKTNVLADFEQLRDILDWEESNELQNLEKEEEDILKSLTNSETEMVQQTQSLRELISDLEHRLQGSVMELLQGVDGVIKRTENVTLKKPETFPKNQRRVFRAPDLKGMLEVFRELTDVRRYWVDVTVAPNNISCAVISEDKRQVSSPKPQIIYGARGTRYQTFVNFNTFVNFNYCTGILGSQSITSGKHYWEVDVSKKTAWILGVCAGFQPDAMCNIEKNENYQPKYGYWVIGLEEGVKCSAFQDSSFHTPSVPFIVPLSVIICPDRVGVFLDYEACTVSFFNITNHGFLIYKFSHCSFSQPVFPYLNPRKCGVPMTLCSPSS [human TRIM5α, 6-codon duplication at 338]", "enrichment": "0.787 ± 1"}
    ]}
  ]
}
